Reference: PubChem BioAssay AID1963576 (National Center for Advancing Translational Sciences (NCATS), 2024)
Hit rate of the full screen: of about 46,000 compounds, about 60 (0.1%) were called active. Not shown: some 3% with an inconclusive outcome. The call rests on the fitted dose curve; in most records, active means well fitted inhibition curve with a large enough effect; inconclusive means small, poorly fitted or top-dose-only effect; inactive means no such curve, though single readings can be large or run the other way. The list shows a part of the results.

Assay: Primary qHTS assay for Inhibitors of ovarian cancer metastasis using an organotypic tumor microenvironment (TME) model. Further: nearly all actives have a fitted effect of over 65% in size.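 On activity change, negative = inhibition: plate controls were DMSO wells for no effect and tomatine positive control wells for full effect.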
Details: SKOV3ip1-GFP adhesion/invasion on 3D omental model, fluorescence; series mostly up to 45.8 µM; activity change, negative = inhibition: at the top concentration
Outline: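 Adhesion/invasion was scored as fixed GFP-labeled SKOV3ip1 cell counts (488/509 nm), normalized to DMSO and tomatine controls. Cancer cells in serum-free medium, with four compound doses (0.36-46 umol/L), sat 2 hr at RT then 16 hr at 37 C on a 48 hr fibroblast/mesothelial/ECM culture.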
In the case of `CCc1nc(SCc2cc(=O)c3cc(C)ccc3[nH]2)n[nH]1`, the “activity change, negative = inhibition” value is reported as inactive: 2.26%. In the case of `CCc1cccc(NC(=O)CSc2nc3ccsc3c(=O)n2CC)c1`, the “activity change, negative = inhibition” value is reported as inactive: -14.1%. In the case of `CCn1c(/C(C#N)=C/c2ccccc2Cl)nc2ccccc21`, the “activity change, negative = inhibition” value is reported as inactive: -21.8%. In the case of `COc1ccccc1N1CCN(C(=O)CN2C(=O)COc3ccc(S(=O)(=O)N4CCCC4)cc32)CC1`, the “activity change, negative = inhibition” value is reported as inactive: 21.7%. In the case of `CCOc1ccc(C2CC(=O)c3c([nH]c(C(=O)OC4CCC(C)CC4)c3C)C2)cc1` (centres undefined), the “activity change, negative = inhibition” value is reported as inactive: 24.7%. With `COCCn1c(SCC(=O)c2ccc(C)cc2C)nc2cc(C(=O)NC3CCCC3)ccc2c1=O` the “outcome” value was “inactive”. In the case of `Cn1nnc2c(N3CCN(c4ccccc4)CC3)ncnc21`, the “activity change, negative = inhibition” value is reported as inactive: 8.31%. For `Cc1cc2ccccc2n1CCNC(=O)c1cc(C(F)(F)F)cc(C(F)(F)F)c1`, the “activity change, negative = inhibition” value was inactive: 2.12%. In the case of `Cc1ccccc1OC(=O)CSc1nnc(-c2ccc3c(c2)OCO3)o1`, the “activity change, negative = inhibition” value is reported as inactive: 24.9%. In the case of `Cc1ccc(Cl)cc1N1CCN(C(=O)C2CCN(S(=O)(=O)c3cccc4nonc34)CC2)CC1`, the “outcome” value is reported as “inactive”. For `CN1CCN(C(=O)Cn2c(-c3cccs3)cc3cc(Cl)ccc32)CC1`, the “activity change, negative = inhibition” value was inactive: -9.43%. With `Cc1ccc(C(=O)Nc2ccc(S(=O)(=O)O)c3cc(S(=O)(=O)O)cc(S(=O)(=O)O)c23)cc1NC(=O)c1cccc(NC(=O)Nc2cccc(C(=O)Nc3cc(C(=O)Nc4ccc(S(=O)(=O)O)c5cc(S(=O)(=O)O)cc(S(=O)(=O)O)c45)ccc3C)c2)c1` the “activity change, negative = inhibition” value was inactive: -8.86%. With `COC(=O)c1cc(NC(=O)c2nn(C)c3c2CSc2ccccc2-3)cc(C(=O)OC)c1` the “activity change, negative = inhibition” value was inactive: -3.88%. For `COc1ccccc1CNc1nc2ccc(Cl)cc2n2cnnc12`, the “outcome” value was “inactive”. With `CC(C)c1ccc(NC(=O)c2cc(S(=O)(=O)N3CCCCC3)cn2C)cc1` the “outcome” value was “inactive”. For `CC(=O)c1c(C)oc2c(Br)cc(NS(=O)(=O)c3ccc(Br)cc3)cc12`, the “outcome” value was “inactive”. In the case of `CC(C)COc1ccc(C2=NC(c3ccncc3)=Nc3ccc(F)cc3N2)cc1`, the “activity change, negative = inhibition” value is reported as inactive: -16%. With `CCOc1ccc(N(CC)S(=O)(=O)N2CCCC(C(=O)Nc3cc(Cl)ccc3C)C2)cc1` (centres undefined) the “activity change, negative = inhibition” value was inactive: -3.5%. For `Cc1ccc(-c2n[nH]c3c2C(c2cccc(O)c2)N(c2ccc(C(=O)O)cc2)C3=O)cc1` (centres undefined), the “outcome” value was “inactive”. With `CCOc1ccc(-c2cc3c(=O)n(Cc4nc(-c5ccc(OC(C)C)cc5)oc4C)ccn3n2)cc1Cl` the “outcome” value was “inactive”. For `CC(C)(C)c1ccc(C(=O)N2CCC(c3nc(-c4ccc(S(=O)(=O)N5CCCC5)cc4)no3)CC2)cc1`, the “activity change, negative = inhibition” value was inactive: -2.72%. In the case of `CCN(CC)CCNC(=O)c1ccc(CSc2nc3ccncc3n2Cc2cccc(F)c2)cc1`, the “activity change, negative = inhibition” value is reported as inactive: -6.25%. For `CCCN(CCC)S(=O)(=O)c1ccc2c(c1)N(CC(=O)NCc1ccc(F)cc1Cl)C(=O)CS2`, the “activity change, negative = inhibition” value was inactive: -22.9%. In the case of `O=C(CCCn1c(=O)c2ccccc2n(CC(=O)Nc2cccc(C(F)(F)F)c2)c1=O)NCc1ccc2c(c1)OCO2`, the “activity change, negative = inhibition” value is reported as inactive: -22.3%.
